Experimental data: PubChem BioAssay AID485344 (National Center for Advancing Translational Sciences (NCATS), 2010)
Several values for one entry are separate records, joined by “and”; a condition that tells them apart may be missing. Identical values can stand only once. Among all 340,000 compounds or so, about 6,900 (2%) were called active. No stated cut-off is given here; in the data, active means inhibition above about 30%; inactive means below that, where a call was filed. This is a selection; strong and weak results do not stand in their true shares. Where no call is shown, the source filed none.

target: D(2) dopamine receptor (Homo sapiens) (UniProt P14416); test: HTS Assay for Allosteric Antagonists of the Human D2 Dopamine Receptor: Primary Screen for Antagonists; details: HEK293 TREx D2 cells, calcium flux, dopamine EC80; at 10 µM; stronger effect = higher value; further: 0% is about no effect
Outline: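 Dopamine at EC80 is the agonist stimulus; test compounds precede it by 180 s. Calcium flux read kinetically in a force-coupled, inducible HEK293 T-REx D2 cell line.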

Chain of UniProt P14416 (P14416 whole entry, looked up): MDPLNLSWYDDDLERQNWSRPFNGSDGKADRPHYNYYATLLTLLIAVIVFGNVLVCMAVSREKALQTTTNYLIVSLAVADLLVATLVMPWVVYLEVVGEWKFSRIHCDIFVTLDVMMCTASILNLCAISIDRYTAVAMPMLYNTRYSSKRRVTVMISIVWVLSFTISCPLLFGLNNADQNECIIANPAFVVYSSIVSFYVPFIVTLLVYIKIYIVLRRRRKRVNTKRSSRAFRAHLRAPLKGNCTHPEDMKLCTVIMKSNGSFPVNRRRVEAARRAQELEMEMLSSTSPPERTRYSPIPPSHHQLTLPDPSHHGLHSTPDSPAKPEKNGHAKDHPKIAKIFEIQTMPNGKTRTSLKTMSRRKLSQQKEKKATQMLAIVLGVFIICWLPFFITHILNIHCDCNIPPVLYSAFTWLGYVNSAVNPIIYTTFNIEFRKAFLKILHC

Compound	inhibition
CCCCN1CCCc2cc(CN(CCCN3CCOCC3)C(=O)Nc3ccc(OCC)cc3)ccc21	8.89%
O=C(NCc1cccc(Cl)c1)C(=O)Nc1ccc2nc3n(c(=O)c2c1)CCCCC3	7.12%
COc1ccc(C)cc1Nc1c2c(nc3nc(-c4cccs4)nn13)CCCC2	-17.9%
COc1cccc(CN2CCc3nc(SCC(=O)Nc4ccccc4)[nH]c(=O)c3C2)c1	15.8%
COc1cc(Nc2nc3ccccc3c3nnc(C)n23)cc(OC)c1	4.51%
CCN(CC)S(=O)(=O)c1ccc2c(c1)N(CC(=O)N1CCN(c3ccccc3F)CC1)C(=O)CO2	-0.669%
CC1CCCN(CCCOc2ccc(Br)cc2Cl)C1 (stereo not given)	active: 36.5%
Cc1ccc2c(=O)c(C(=O)c3cccc(Cl)c3)cn(CC(=O)NCc3ccc(F)cc3)c2n1	1.82%
C=Cc1ccc(CN2C(=O)N(c3cccc(Cl)c3)S(=O)(=O)c3ccccc32)cc1	-22.4%
COc1ccc(C(=O)n2nc(-c3ccco3)nc2NCc2cccs2)cc1	-6.95%
COc1ccc(-n2ncc3c(NCCC4=CCCCC4)ncnc32)cc1	-1.45%
Cc1noc(/C=C/c2ccco2)c1S(=O)(=O)N1CCC(C(=O)Nc2ccc(F)c(Cl)c2)CC1	-1.22%
Cc1ccccc1-c1nc(CS(=O)(=O)CC(=O)NCc2cccc(Cl)c2)c(C)o1	11.2%
Cc1ccc(N2CC(C(=O)Nc3ccc(Br)cc3)CC2=O)cc1 (stereo not given)	13.5%
CCC1=Nc2cc(C(=O)NC3CCCC3)ccc2Sc2ccc(Br)cc21	-5.1%
O=C(/C=C/c1ccc(F)cc1)Nc1nc2n(n1)C(c1ccc(Cl)cc1)C=C(c1ccccc1)N2 (stereo not given)	7.98%
COc1ccc(Cn2c(C(=O)O)c(CNC3CCCCCC3)c3ccc(OC)cc32)cc1	-5.18%
Cc1ccc2sc(N3CCN(C(=O)CCS(=O)(=O)c4ccc(F)cc4)CC3)nc2c1C	16.6%
COc1ccc(OC)c(CNC(=O)CCn2c(=O)c3cccn3c3ccc(F)cc32)c1	16.1%
CCc1ccc(-c2nn(CC(=O)NC3CCCC3)c3c2cnc2ccc(F)cc23)cc1	4.19%
COC(=O)c1ccccc1NC(=O)Cn1nnc2sc(-c3ccccc3)cc2c1=O	4.14%
COc1ccccc1CNS(=O)(=O)c1cc2c3c(c1)CCN3C(=O)CC2	-16.9% and active: 74.8%
COc1ccc(-c2nc(-c3ccccc3)c(-c3ccc(O)cc3)[nH]2)cc1	-16.7%
CCOc1ccccc1NC(=O)NCCn1c(=O)oc2ccc(C)cc21	6.17%

Compound	inhibition
COc1ccccc1C(=O)Nc1nc(-c2ccccc2)ns1	-0.481%
COc1ccccc1C(=O)NCCn1cc(SCc2ccccc2Cl)c2ccccc21	2.27%
Cc1ccc(NC(=O)C(=O)NCC(c2cccnc2)N2CCc3ccccc32)cc1Cl (stereo not given)	13.9%
Cc1c(Cl)cccc1NC(=O)CCn1nc(C)c2c(C)n(-c3ccccc3)nc2c1=O	6.64%
O=C(Nc1ccc(F)c(Cl)c1)c1cc(S(=O)(=O)N2CCCc3ccccc32)ccc1F	9.68%
CCOc1ccccc1NC(=O)CN1C(=O)C2(SCC(=O)N2c2cccc(F)c2)c2ccccc21 (stereo not given)	8.28%
CCOc1ccc(C(=O)N2CCCCC2CCN2CCOCC2)cc1 (stereo not given)	8.12%
COc1ccc(NC(=O)c2sc3nc(C)c(C(=O)Nc4ccc(Cl)cc4)c(-c4ccc(Br)cc4)c3c2N)cc1	11.3%
COc1cccc(-c2cc(C(=O)Nc3ccc(C)cc3)[nH]n2)c1	7.24%
COc1ccc(C(=O)N2CCc3cc(OC)c(OC)cc3C2COc2ccc3c(C)cc(=O)oc3c2)c(OC)c1 (stereo not given)	12.3%
Cc1cc(C)n(-c2nc3ccccc3nc2Nc2cc(C(=O)O)ccc2C)n1	7.75%
Cc1ccc(CN2CCN(CC(=O)NCc3ccccc3Cl)C2=O)cc1	-10%
COc1cc(NS(=O)(=O)c2ccc3c(c2)CCCN3C(C)=O)cc(OC)c1OC	-2.44%
Cc1cc(C)cc(-n2nnc(-c3nc(-c4ccccc4F)no3)c2C)c1	5.86%
COc1ccc(CNC(=O)c2ccc3c(c2)nc2n3CCCCC2)c(OC)c1	-2.98%
c1csc(CSc2nc3ccccc3s2)c1	active: 39.1%
CCOC(=O)c1cccc(NS(=O)(=O)c2cn(C)c(C)n2)c1	10.6%
Cc1ccc(C(=O)COC(=O)C2CC(=O)N(c3nc(-c4ccccc4)cs3)C2)cc1 (stereo not given)	active: 34.1%
COc1ccc(/C=C/c2noc(-c3ccccc3O)n2)cc1OC	16.7%
Cc1ccccc1C(=O)NC1CC2CCCC(C1)N2Cc1ccccc1 (stereo not given)	active: 71.4%
COC(=O)c1ccccc1NC(=O)Cn1c(=O)n(-c2ccc(Cl)cc2)c(=O)c2c(C)c(C)sc21	10.4%
CCOc1ccc(OCC)c(NC(=O)CCc2c(C)nc3c(c2C)c(=O)n(C)c(=O)n3C)c1	13%
O=C(c1ccc2c(c1)N(Cc1ccccc1)C(=O)c1ccccc1S2(=O)=O)N1CCN(c2ccccn2)CC1	-3.59%
CCSc1ncc(Cl)c(C(=O)Nc2c(C(=O)Nc3ccc(Cl)cc3)oc3ccccc23)n1	-10.4%

Compound	inhibition
COc1cc(C2c3c(oc4ccccc4c3=O)C(=O)N2c2nnc(C(C)C)s2)cc(OC)c1OC (stereo not given)	19.6%
CCOc1ccccc1CNC(=O)c1cc(-c2ccc(OC)cc2)nc2ccc(C(C)C)cc12	-18%
COc1ccc(NC(=O)COCc2cc(-c3cccs3)on2)cc1	-15.7%
Cc1ccccc1C1C=C(c2ccc(Cl)cc2)Nc2nnnn21 (stereo not given)	2.67%
O=C(CCN1CCN(c2ccccc2)CC1)NNC(=O)c1cccc2ccccc12	active: 85.3%
CN1C(=O)Cc2cc(S(=O)(=O)CCC(=O)N3CCN(c4ccccc4F)CC3)ccc21	1.48%
COc1ccc(-c2cc(C(F)(F)F)n3nc(C(=O)Nc4cccc(Cl)c4C)cc3n2)cc1	8.9%
CCOC(=O)c1ccc(NC(=O)Cn2cnc(S(=O)(=O)N3CCCC3)c2)cc1	8.84%
COc1ccc(-n2nc3c(N4CCCC(C(=O)NCCc5ccc(C)cc5)C4)nnc(C)c3c2C)cc1 (stereo not given)	-17.7%
CC(C)CNc1ncnc2c1sc1nc(N3CCOCC3)c3c(c12)CC(C)(C)OC3	active: 32.9%
COc1ccc(-n2cc(-c3ccccc3)nc2SCC(=O)Nc2ccccc2)cc1Cl	11.7%
CCc1ccc(S(=O)(=O)c2nnn3c2nc(N2CCCC2)c2sccc23)cc1	11.4%
CCc1ccc(NC(=O)N2CC(C)Oc3ccc(C)cc32)cc1 (stereo not given)	7.14%
CC(C)(C)OC(=O)N1CCC(c2c(C(=O)NCCN3CCC(Cc4ccccc4)CC3)cnn2-c2ccccc2)CC1	5.12%
COc1cccc(C2=NOC(C(=O)Nc3ccc4c(c3)OCO4)C2)c1OC (stereo not given)	active: 59.8%
COCCCNc1ncnc2c1cnn2-c1ccc(F)cc1	10.9%
COc1cc2ccccc2cc1C(=O)Nc1ccc2oc(-c3cccc(Cl)c3Cl)nc2c1	2.31%
COc1ccc(C2CC(=O)Nc3c2c(=O)[nH]c2nc4ccccc4n32)cc1OC (stereo not given)	9.76%
Cc1ccc2oc3c(c(=O)c2c1)C(c1ccc(F)cc1)N(c1nc(C)c(C)s1)C3=O (stereo not given)	-11.5%
COCCNC(=O)C(=O)NCC(c1cccnc1)N1CCN(c2ccccc2F)CC1 (stereo not given)	-2.16%
COc1ccccc1Nc1nc2ccc(Cl)cc2nc1-n1nc(C)cc1C	-6.59%
CCOC(=O)c1ccc(NC(=O)CC2C(=O)N(c3ccc(F)cc3)C(=O)N2Cc2ccc3c(c2)OCO3)cc1 (stereo not given)	11.8%
CCOC(=O)c1cccc(NC(=O)C2CCN(S(=O)(=O)c3cn(C)cn3)CC2)c1	-2.45%
Cc1ccc(C)c(NS(=O)(=O)c2cc3c(cc2Cl)NC(=O)CO3)c1	14.7%

Compound	inhibition
COc1ccc(N2CCN(C3=NS(=O)(=O)C(c4cccc(Br)c4)=C3C)CC2)cc1	26.6%
CCOC(=O)c1ccc(NC(=O)CCc2c(C)nc3nc[nH]n3c2=O)cc1	4.79%
Cc1cc(C)c(NC(=O)CCc2c(C)nc3c(c(C)nn3C(C)(C)C)c2C)c(C)c1	26.4%
COc1ccc(C2=NN(CC(=O)NCCCN(C)c3ccccc3)C(=O)CC2)cc1	-13.9%
COC(=O)c1cc2sc(C)cc2n1Cc1ccc(Br)cc1F	-2.16%
CCOc1ccccc1N1CCN(C(=O)c2ccc(-c3ccc(OC(C)=O)cc3)cc2)CC1	active: 30.7%
Cc1ccccc1Nc1c(-c2ccc(N3CCOCC3)cc2)nc2ncccn12	3.06%
COc1ccc(CN2COc3ccc4c(oc(=O)c5ccccc54)c3C2)cc1OC	2.65%
O=C(Nc1ccccc1-c1nc2ccccc2s1)c1cc(Cl)cc(Cl)c1	8.11%
O=C(c1ccccc1Cl)n1nc(-c2cccnc2)nc1NCc1ccc(F)cc1	-0.446%
COC(=O)c1scc(-c2ccccc2)c1S(=O)(=O)Nc1cccc(C)c1C	12%
CCCCOc1ccc(C(=O)N(Cc2ccc(C(C)C)cc2)C2CCS(=O)(=O)C2)cc1 (stereo not given)	-6.58%
COCCCNC(=O)c1sc2nc(C)c(C(=O)Nc3ccc(C)cc3C)c(-c3ccc(Cl)cc3)c2c1N	9.01%
Cc1c(Cl)cccc1NC(=O)c1ccc(C(=O)Nc2cccc(Cl)c2C)cc1	-1.47%
CC(=O)Nc1ccc(S(=O)(=O)N2CCC(Oc3ccc(-n4cnnn4)cc3)CC2)cc1	-12.9%
CCOc1ccccc1N1CCN(Cc2c(C)n(C)n(-c3ccccc3)c2=O)CC1	active: 84.6%
CC(=O)N1CCc2c(sc3c2c(=O)n(-c2ccccc2C)c(=O)n3Cc2cccc(F)c2)C1	-14.1%
CC1CCN(C(=O)c2cnn(-c3cccc(Cl)c3)c2C2CCN(C(=O)OC(C)(C)C)CC2)CC1	-5.7%
COc1ccc(OCC(=O)NCC(c2ccc(Cl)cc2)N2CCCCC2)cc1 (stereo not given)	8.79%
COc1ccc(NC(=O)c2c(-c3ccccc3)c(-c3ccccc3)nn(C)c2=O)c(OC)c1	-7.76%
CC(=O)N1c2ccccc2C(=O)C1N1CCN(c2ccccc2)CC1 (stereo not given)	-1.11%
Cc1ccc2c(=O)cc(CSc3nnc(-c4ccccc4)n3C)[nH]c2c1C	2.67%
Cc1cc(-c2nc3ncccc3o2)ccc1NC(=O)c1ccc(Br)cc1	-10.7%
